One block for each binder: values may come before it.
Experiments:
human pCTS-L [1] = target: T1, human pCTS-L (human); experiment: SPR, pCTS-L immobilized
T1 chain: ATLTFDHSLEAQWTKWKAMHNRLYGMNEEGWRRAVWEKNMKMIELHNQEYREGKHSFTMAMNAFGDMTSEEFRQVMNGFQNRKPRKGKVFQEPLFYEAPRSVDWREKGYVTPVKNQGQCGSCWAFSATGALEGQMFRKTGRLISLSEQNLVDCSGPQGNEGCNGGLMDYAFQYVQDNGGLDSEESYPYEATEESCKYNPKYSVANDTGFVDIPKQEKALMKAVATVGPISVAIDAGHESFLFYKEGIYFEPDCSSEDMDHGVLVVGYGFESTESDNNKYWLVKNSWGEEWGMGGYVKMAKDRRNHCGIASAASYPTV

human pCTS-L [2] = target: T1, human pCTS-L; experiment: SPR, pCTS-L immobilized, pre-incubated with mAb20
human pCTS-L [3] = target: T1, human pCTS-L; experiment: SPR, pCTS-L immobilized, reference without mAb20

- Kd (human pCTS-L [1]): 3.5 nM
- Kd (human pCTS-L [2]): 30.4 nM
- Kd (human pCTS-L [3]): 3.1 nM
B1: human RAGE ECD (protein)
chain: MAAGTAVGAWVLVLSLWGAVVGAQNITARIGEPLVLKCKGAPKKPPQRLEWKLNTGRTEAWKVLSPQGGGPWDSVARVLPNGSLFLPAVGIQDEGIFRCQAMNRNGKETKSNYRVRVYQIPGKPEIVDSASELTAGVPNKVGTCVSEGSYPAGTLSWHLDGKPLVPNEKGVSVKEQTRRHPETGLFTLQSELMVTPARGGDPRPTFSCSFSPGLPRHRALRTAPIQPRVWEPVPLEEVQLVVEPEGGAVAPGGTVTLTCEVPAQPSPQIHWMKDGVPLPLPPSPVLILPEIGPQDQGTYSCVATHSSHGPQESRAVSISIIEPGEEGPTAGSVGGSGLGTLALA

- Kd (human pCTS-L [1]): 20.2 nM
- Kd (human pCTS-L [2]): 1140 nM
- Kd (human pCTS-L [3]): 20.3 nM
B2: human TLR4 ECD (protein)
chain: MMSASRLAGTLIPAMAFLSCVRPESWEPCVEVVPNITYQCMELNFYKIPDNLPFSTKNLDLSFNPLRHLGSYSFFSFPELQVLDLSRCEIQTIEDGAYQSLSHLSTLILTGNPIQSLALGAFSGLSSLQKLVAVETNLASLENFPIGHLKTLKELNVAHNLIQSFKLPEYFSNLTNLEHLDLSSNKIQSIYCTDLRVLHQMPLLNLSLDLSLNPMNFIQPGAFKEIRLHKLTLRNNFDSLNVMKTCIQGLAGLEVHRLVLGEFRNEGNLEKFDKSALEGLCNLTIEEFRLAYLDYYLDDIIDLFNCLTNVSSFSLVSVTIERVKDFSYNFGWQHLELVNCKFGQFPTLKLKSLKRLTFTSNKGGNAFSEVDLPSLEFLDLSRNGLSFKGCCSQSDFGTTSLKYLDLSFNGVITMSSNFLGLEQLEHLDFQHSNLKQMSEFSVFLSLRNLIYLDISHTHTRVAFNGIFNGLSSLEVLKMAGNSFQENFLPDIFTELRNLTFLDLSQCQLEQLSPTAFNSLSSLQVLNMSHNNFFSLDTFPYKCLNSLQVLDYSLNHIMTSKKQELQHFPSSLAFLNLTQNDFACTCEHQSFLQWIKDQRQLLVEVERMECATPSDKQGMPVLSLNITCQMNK
